Test results as given in article PMC4336329 (PLoS ONE, 2015).
Hit rate of the full screen: of about 310,000 compounds, about 14,000 (4.5%) showed an effect of 50% or more. The effect is printed as a negative number. The list shows a part of the results.

The compounds below were run against human ether-à-go-go-related gene (hERG) potassium channel (human, UniProt Q12809) (assay: primary screen, population patch clamp on CHO cells stably expressing hERG).
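Also: peak tail current of the secondary pulse compared with the same well before compound.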

Chain of human ether-à-go-go-related gene (hERG) potassium channel (Q12809 whole entry, looked up): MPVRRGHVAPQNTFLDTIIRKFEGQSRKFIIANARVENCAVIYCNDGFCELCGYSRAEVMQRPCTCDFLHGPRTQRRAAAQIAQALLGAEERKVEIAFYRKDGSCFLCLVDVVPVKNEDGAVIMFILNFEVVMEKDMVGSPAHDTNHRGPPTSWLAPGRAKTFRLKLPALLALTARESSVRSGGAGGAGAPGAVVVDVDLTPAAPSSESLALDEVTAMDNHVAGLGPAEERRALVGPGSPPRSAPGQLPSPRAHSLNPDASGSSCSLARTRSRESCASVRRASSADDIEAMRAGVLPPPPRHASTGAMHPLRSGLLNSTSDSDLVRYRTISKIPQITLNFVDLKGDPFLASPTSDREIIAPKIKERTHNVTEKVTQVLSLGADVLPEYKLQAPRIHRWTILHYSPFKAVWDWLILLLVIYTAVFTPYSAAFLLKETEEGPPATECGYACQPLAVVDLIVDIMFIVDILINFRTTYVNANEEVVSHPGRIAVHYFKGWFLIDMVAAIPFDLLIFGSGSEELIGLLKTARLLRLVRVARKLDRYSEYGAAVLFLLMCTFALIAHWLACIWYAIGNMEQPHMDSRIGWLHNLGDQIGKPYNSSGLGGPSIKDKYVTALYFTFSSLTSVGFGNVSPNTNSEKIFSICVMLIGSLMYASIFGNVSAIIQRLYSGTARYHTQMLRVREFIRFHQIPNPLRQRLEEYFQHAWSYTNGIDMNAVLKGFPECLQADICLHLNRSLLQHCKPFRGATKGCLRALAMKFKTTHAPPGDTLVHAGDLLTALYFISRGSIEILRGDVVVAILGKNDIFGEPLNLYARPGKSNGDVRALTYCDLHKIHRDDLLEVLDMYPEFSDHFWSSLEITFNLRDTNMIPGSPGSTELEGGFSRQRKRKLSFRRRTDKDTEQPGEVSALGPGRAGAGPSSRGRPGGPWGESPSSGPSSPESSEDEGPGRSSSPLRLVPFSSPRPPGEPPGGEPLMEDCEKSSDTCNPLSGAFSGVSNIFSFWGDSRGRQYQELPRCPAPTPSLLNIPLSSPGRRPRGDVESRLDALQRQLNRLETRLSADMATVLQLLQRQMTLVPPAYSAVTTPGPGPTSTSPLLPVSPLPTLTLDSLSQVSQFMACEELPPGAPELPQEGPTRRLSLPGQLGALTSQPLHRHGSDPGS

Compound	hERG current change (%, negative = inhibition) at 10uM [%]
N/C(=N\OC(=O)CN1C(=O)c2ccccc2C1=O)c1ccc(Br)cc1	15.5
CCCc1nnc(NC(=O)CCC(=O)N2CCN(CCn3c(C)ccc3C)CC2)s1	4.28
CCC(c1ccccc1)c1nc(-c2cccnc2)no1 (stereo not shown)	-14.1
Cc1ccc(S(=O)(=O)Oc2ccccc2/C=N/N=C(N)N)cc1	-27.5
CCc1cccc(CC)c1NC(=O)Cn1c(-c2ccccc2Cl)nc2ccccc21	11.5
Brc1cccc(CN2CCCCCCC2)c1	-5.2
Cc1ccc(S(=O)(=O)Nc2nc3c(s2)C(=O)CC(C)(C)C3)cc1	13.5
Cc1cc(C(=O)Nc2cccc(S(=O)(=O)N3CCCC3)c2)c2ccccc2n1	7.45
CCN(C(=O)c1ccccc1F)c1nc(-c2ccc(OC)cc2)cs1	22.8
CCC(=O)Nc1c2c(nn1-c1cccc(Cl)c1)CS(=O)(=O)C2	-38.7
O=C(Nc1cccc(NC(=S)NC(=O)c2cccs2)c1)c1ccccc1	10.9
Cc1c(NC(=O)C(=O)N/N=C/c2cccs2)c(=O)n(-c2ccccc2)n1C	16.5
CCc1cc(=O)[nH]c(SCc2cccc3ccccc23)n1	13.3
CCCc1nc(SCC(=O)Nc2ccccc2OC)c2c(=O)n(C)c(=O)n(C)c2n1	-7.7
CCS(=O)(=O)N1CCC(C(=O)Nc2cc(Cl)ccc2O)CC1	0.943
CCCOc1ccc(C(=O)Nc2ccc(S(=O)(=O)Nc3onc(C)c3C)cc2)cc1	13.8
Cn1c(NC(=O)c2ccco2)c(-c2ccc(Cl)cc2)c(=O)c2ccccc21	20.8
Cc1nn(Cc2ccccc2Cl)c(Cl)c1C(=O)O	8.83
Cc1cccc(NC(=O)CSc2nnc(NC(=O)CN3CCCCC3)s2)c1	-7.69
CN(C)CCNc1oc(-c2cccc(Cl)c2)nc1C#N	-36.2
Nc1ncn([C@@H]2O[C@H](CO)[C@@H](O)[C@H]2O)c(=O)n1	-1.53
O=C(CCCNS(=O)(=O)c1cccc2nsnc12)NCCc1ccccc1	5.61

Compound	hERG current change (%, negative = inhibition) at 10uM [%]
O/N=C1\CCCC\C1=C/c1ccccc1	-8.27
CN1C[C@@H]2C(c3ccc(C(F)(F)F)cc3)C3(c4cccnc4)CC2(C3)[C@H]1c1ccccc1 (stereo partly shown)	-60
CC(C)OC(=O)CN1C(=O)C(C)(C)Oc2ccc(C(=O)NC(C)(C)C)cc21	2.74
CC1(C)C=C(c2ccc(C=O)s2)CC(C)(C)N1	-4.45
O=C1CC(Sc2nnnn2C2CCCCC2)C(=O)N1c1ccccc1 (stereo not shown)	0.56
O=C(CCNS(=O)(=O)c1ccccc1)N1CCC(Cc2ccccc2)CC1	-16.8
Cc1cccc(C)c1N1CCN(S(=O)(=O)N2CCCCC2)CC1	18.9
CCCc1nnc(NC(=O)CN2C(=O)c3ccccc3S2(=O)=O)s1	10.6
Cc1ccc(C)c(OCc2ccc(C(=O)NN)o2)c1	-1.95
CCC(C)(C)NC(=O)C1CCN(c2nc(C)cc(C)n2)CC1	8.36
O=C(NCc1cccc(Cl)c1)C1CCN(S(=O)(=O)c2ccc(F)cc2)CC1	-12
COc1cc(/C=N/NC(=O)CN2CCCCC2)ccc1OCc1ccc(Br)cc1	-59
CC(C)(C)NC(=O)C(c1ccc(O)cc1)N(Cc1ccccc1)C(=O)CCC(=O)Nc1nccs1 (stereo not shown)	5.02
CCOc1ccc(NC(=O)C2=C(C)NC(=S)NC2c2ccc(O)c(OC)c2)cc1 (stereo not shown)	6.09
CC(C)C[C@H](NC(=O)c1nc[nH]c1C(=O)NC1CC[NH2+]CC1)C(=O)OC(C)(C)C.[Cl-]	22.9
Cc1ccc(CNC(=O)COC(=O)CCOc2ccc(C)cc2)cc1	5.6
CNC(=S)N(Cc1ccc(OC)cc1)Cc1cc2cccc(C)c2[nH]c1=O	0.535
COc1cc(C(=O)Nc2ccc3oc(-c4cccnc4)nc3c2)cc(OC)c1OC	10.5
CCCC12CN3CC(C)(CN(C1)C3c1ccc3c(c1)OCO3)C2=O (stereo not shown)	-10.9
Cc1ccc(OS(=O)Nc2cccc3nccnc23)cc1 (stereo not shown)	-18.6
Nc1cccnc1Sc1ccc(Cl)cc1	-14.9
Cc1c(C)c2ccc(OCC(=O)N3CC[C@@]4(O)CCCC[C@H]4C3)c(C)c2oc1=O	-0.536

Compound	hERG current change (%, negative = inhibition) at 10uM [%]
Cc1ccc(C(C)C)cc1NC(=O)Nc1ccc([N+](=O)[O-])cc1	21.4
Cc1cc(C)cc(NC(=O)C2CCCN(S(=O)(=O)c3ccc4[nH]c(=O)ccc4c3)C2)c1 (stereo not shown)	-8.13
O=C(Cn1c(=S)[nH]c2ccccc2c1=O)N1CCN(c2ccccc2)CC1	14.3
O=C(Nc1cccc(F)c1)/C(=C/c1ccco1)NC(=O)c1ccco1	-23.8
Cc1ccccc1C(=O)Nc1ccc(N2CCN(C(=O)c3ccco3)CC2)cc1	-4.23
Cc1ccc(S(=O)(=O)N(CC(=O)Nc2ccccc2C(=O)O)c2cccc(Cl)c2C)cc1	3.29
Cc1nc2ccccc2n1CC(=O)NCCN1CCCC1	-1.4
O=C(COc1ccc(Cl)cc1Cl)NC(=S)Nc1ccccc1C(=O)O	19.9
COc1ccc(C2=Nn3c(nnc3-c3ccccn3)SC2)cc1OC	-34.3
CN(C(=O)Nc1cnc2ccccc2c1)c1ccccc1	-3.36
CCn1c2ccccc2c2nnc(SCCN3CCOCC3)nc21	3.2
CSc1nsc(SCC(=O)Nc2cccc(NC(C)=O)c2)n1	3.67
Cc1ccc(CN2CC(C(=O)N3CCN(c4ccccc4O)CC3)CC2=O)cc1 (stereo not shown)	-6.43
COc1ccc(-n2c(CNC(=O)c3cccs3)n[nH]c2=S)cc1	27.7
CC1CCCCC1NC(=O)COC(=O)c1c2c(nc3ccccc13)/C(=C/c1ccco1)CC2 (stereo not shown)	-2.63
O=C(O)c1cccc(NC(=S)N/N=C/c2cccnc2)c1	9.92
COc1cc(C(=O)NC(=S)Nc2nccs2)cc(OC)c1OC	17.7
CCCn1c(SCC(=O)NCc2cccs2)nc2c1c(=O)n(C)c(=O)n2C	-2.03
OCCCn1c(-c2ccccc2)n[nH]c1=S	11.8
CC(=O)Nc1cccc(OC(=O)c2ccoc2C)c1	0.497
O=C(CN1CCN(C(=O)c2cncn2-c2ccccc2)CC1)Nc1ccccc1Cl	-77.3
CSc1cccc(NC(=O)CCNC(=O)c2ccco2)c1	7.19

Compound	hERG current change (%, negative = inhibition) at 10uM [%]
O=C1c2ccccc2C(=O)N1Cc1nc(-c2ccccc2)no1	12.1
O=C(OCC(=O)N(Cc1ccccc1)C1CCS(=O)(=O)C1)c1cc2c(s1)CCCC2 (stereo not shown)	2.71
S=C1NCN(Cc2cccnc2)CN1c1cccc(Cl)c1	-1.87
Cc1occc1-c1nnc(SCC(=O)Nc2nccs2)n1CCc1ccccc1	-60.3
CCCOC(=O)c1c(-c2ccc(C)cc2C)csc1NC(=O)C1C2CCC(O2)C1C(=O)O (stereo not shown)	-0.946
COc1ccc(N2C(=O)NC3CC2(C)Oc2ccc(Br)cc23)cc1OC (stereo not shown)	6
Cn1c(-c2ccc(Cl)nc2)nc2cc(Cl)ccc21	-9.09
O=C(C1=C[C@H](C2CC2)C[C@H](OCc2ccc(CO)cc2)O1)N1CCOCC1	15.5
O=c1c2[nH]c3ccccc3c2ncn1Cc1ccncc1	-19.8
Cc1ccc(OC/C(O)=C(\C#N)c2nc3ccccc3s2)cc1	18
CC(C)N1CC=C(c2c[nH]c3ccccc23)CC1	-8.03
Cc1c(NC(=O)COC(=O)COc2ccc(Nc3ccccc3)cc2)c(=O)n(-c2ccccc2)n1C	-2.4
COc1ccc(-c2nc(CN3CCN(C(=O)c4ccco4)CC3)c(C)o2)c(OC)c1C	-18
Cc1ccc(C(=O)c2cc3c(cc2N)OCCO3)cc1	-11.4
CCOC(=O)C1=C(C)Nc2nnnn2C1c1cccc(OC)c1OC (stereo not shown)	-9.89
O=C(Nn1c(-c2ccc(Br)cc2)nc2ccccc2c1=O)c1ccc([N+](=O)[O-])cc1	-66.6
Nc1ccn(-c2ccccc2)c(=O)c1	3.69
Cc1ccc(C)c(/C=C2\N=C(c3ccccc3F)OC2=O)c1	17.5
Cn1c(=O)n(C)c2cc(NS(=O)(=O)c3ccc4c(c3)CCCC4)ccc21	-25.6
O=C(OCc1cc(=O)n2cc(Br)ccc2n1)C1COc2ccccc2O1 (stereo not shown)	-15.5
O=C(COC(=O)C1CCC1)NC(=O)c1ccccc1	17.1
COc1ccc(C2c3c(-c4ccccc4O)n[nH]c3C(=O)N2CCc2ccc(OC)c(OC)c2)cc1 (stereo not shown)	-10.8
